Measured values taken from patent publication US20250368735A1 (AKESO BIOPHARMA, published 2025).

Columns and labels:
[1] = biological target: T1, CD47 on the cell membrane surface (CHO-K1-CLDN18.2-CD47 cells, 3T3-CD47 cells, human red blood cells, human T … (human, UniProt Q08722)); assay: competitive flow cytometry on CHO-K1-CLDN18.2-CD47 cells; competitor hSIRPaV2-hFc-mFc at 3 nM
T1 construct: whole, on cells; blood cells came from healthy human volunteers; also called cell membrane surface antigen CD47
Protocol: 100 μL of 1% PBSA was then added to each well, and the mixture was centrifuged and washed.

[2] = biological target: T1, CD47 on the cell membrane surface …; assay: flow cytometry on human PBMC, CD3-CD19+ B cells, anti-human IgG Fc-AF647
[3] = biological target: T2, CLDN18.2 His (human, UniProt P56856-2 1-261, limits assumed); assay: BLI (Fortebio Octet), antibody on AHC sensor, CLDN18.2 His 6.25-100 nM, 1:1 fit
T2 construct: also called antigen CLDN18.2 His; human CLDN18.2; not shown: His tag
Protocol: (§1) The affinity constant of the antibody for human CLDN18.2 and CD47 ECD-His was determined using a Fortebio Octer molecular interaction instrument. The sample dilution buffer was PBS (0.02% Tween-20, 0.1% BSA, pH 7.4). The method for detecting the affinity of the antibody for human CLDN18.2 is as follows. The antibody at 20 nM was immobilized on an AHC sensor for 60 s. The sensor was equilibrated in a buffer for 60 s, and the binding of the immobilized antibody on the sensor to CLDN18.2 His at concentrations of 6.25-100 nM (two-fold dilution) was determined for 180 s. The protein was dissociated in the buffer for 360 s. The method for detecting the affinity of the antibody to human CD47 ECD-His is as follows. The antibody at 30 nM was immobilized on an AHC sensor for 120 s. The sensor was equilibrated in a buffer for 60 s, and the binding of the immobilized antibody on the sensor to the protein CD47 ECD-His at concentrations of 4.94-400 nM (three-fold dilution) was determined for 50 s. The protein was dissociated in the buffer for 120 s. The shaking speed of the sample plate was 1000 rpm, the temperature was 30° C., and the frequency was 5.0 Hz. The data were analyzed by 1:1 model fitting to obtain affinity constants. The data acquisition software was Fortebio Data Acquisition 12.0, and the data analysis software was Fortebio Data Analysis HT 12.0.

[4] = biological target: T3, human CLDN18.2 (ELISA coating antigen) (human, UniProt P56856-2 1-261, limits assumed); assay: indirect ELISA, coated human CLDN18.2 2 µg/mL
T3 construct: also called antigen human CLDN18.2
Protocol: After blocking, the ELISA plate was washed 3 times with PBST. The ELISA plate containing the test antibodies was incubated at 37° C. for 30 min and then washed 3 times with PBST. […] The ELISA plate was put into a microplate reader immediately, and the OD value of each well in the ELISA plate was read at 450 nm. The data were analyzed and processed by SoftMax Pro 6.2.1.

[5] = biological target: T4, CD47 ECD-His (human, UniProt Q08722 partial chain, limits assumed); assay: BLI (Fortebio Octet), antibody on AHC sensor, CD47 ECD-His 4.94-400 nM, 1:1 fit
T4 construct: extracellular domain; also called human CD47 ECD-His; not shown: His tag
Protocol: as §1

[6] = biological target: T5, CLDN18.2 on the cell membrane surface (CHO-K1-CLDN18.2 cells, CHO-K1-CLDN18.2-CD47 cells, CHO-K1-hClaudin18.2 … (human, UniProt P56856-2 1-261)); assay: flow cytometry (FACS) on CHO-K1-CLDN18.2 cells, PE anti-human IgG Fc
T5 construct: whole, on cells; also called human Claudin18.2

[7] = biological target: T6, CD47 IgV TEV-His (human, UniProt Q08722 partial chain); assay: indirect ELISA, coated CD47-Igv-TEV-his 2 µg/mL
T6 construct: range 19-141; also called human CD47 IgV TEV-His; not shown: his tag
Protocol: After blocking, the ELISA plate was washed 3 times with PBST. The ELISA plate containing the test antibodies was incubated at 37° C. for 30 min and then washed 3 times with PBST. […] The data were analyzed and processed by SoftMax Pro 6.2.1.

- EC50 [1]: 10.1 nM
- EC50 [2]: 24.1 nM
- Kd [3]: 1.5 nM
- koff [3]: 5.18e-05 s⁻¹
- kon [3]: 34600 M⁻¹ s⁻¹
- EC50 [4]: 0.021 nM
- Kd [5]: 21.7 nM
- koff [5]: 0.0148 s⁻¹
- kon [5]: 682000 M⁻¹ s⁻¹
- EC50 [6]: 10.6 nM
- EC50 [7]: 0.164 nM
B1: AsAb-8C4703 (bispecific antibody, human IgG1, kappa)
chain: QVQLVQSGAEVVKPGASVKLSCKASGYTFTSYWMNWVRQRPGQCLEWIGMIDPSDSETHNAQKFQGKATLTVDKSTSTAYMHLSSLRSEDTAVYYCARLYRWYFDVWGAGTTVTVSSGGGGSGGGGSGGGGSGGGGSNIVMTQSPATMSMSPGERVTLSCRASEIVGTYVSWFQQKPGQAPRLLIYGASNRYTGVPARFSGSGSGTDFTLTISSVQPEDLADYHCGQSYNFPYTFGCGTKLEIK[omitted - human IgG1 Fc with changes]
heavy: EVQLVESGGGLVKPGGSLRLSCAASGFTFSNSAVSWVRQAPGKGLEWVSSITSGVSYTYYADSVKGRFTISRDNAKNSLYLQMNSLRAEDTAVYYCTRQFKGNALDYWGQGTSVTVSSASTKGPSVFPLAPSSKSTSGGTAALGCLVKDYFPEPVTVSWNSGALTSGVHTFPAVLQSSGLYSLSSVVTVPSSSLGTQTYICNVNHKPSNTKVDKKV[omitted - human IgG1 Fc with changes]
light: DIVMTQSPSSLSVSPGERVTISCKSSQSLLNSGNQKNYLAWYQQKPGQPPKLLIYWASTRESGVPDRFSGSGSGTDFTLTISSLQAEDVAVYYCQNDYFYPLTFGAGTKLELKRTVAAPSVFIFPPSDEQLKSGTASVVCLLNNFYPREAKVQWKVDNALQSGNSQESVTEQDSKDSTYSLSSTLTLSKADYEKHKVYACEVTHQGLSSPVTKSFNRGEC
notes: Three peptide chains; HC1 and HC2 linked by two hinge disulfide bonds, HC2 and L3 by one disulfide bond; Monovalent for CD47 (scFv arm) and for CLDN18.2 (Fab arm); also called anti-CLDN18.2/anti-CD47 bispecific antibody
